{
  "source": "the supplement of paper PMC8728848",
  "assay_in_all_cases": "glycan array binding signal (z-score within array); higher = stronger binding",
  "details_in_all_cases": "glycan notation: IUPAC condensed, linker removed",
  "key": {"[1]": {"biological_target": "GlcNAc(b1-4)GlcNAc(b1-4)GlcNAc(b1-4)GlcNAc(b1-4)GlcNAc(b1-4)GlcNAc", "in_short": "(§1)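 The Consortium for Functional Glycomics database supplied 3228 glycan arrays, of which those lacking an available protein sequence were dropped. The binding signal, a within-array Z-score, was averaged across arrays of the same protein sequence and across linkers. Negative scores can be read as non-binding.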"}, "[2]": {"biological_target": "GlcNAc(b1-4)[GlcNAc(b1-6)]GalNAc", "in_short": "as §1"}, "[3]": {"biological_target": "GlcNAc(b1-6)Gal(b1-4)GlcNAc", "in_short": "as §1"}, "[4]": {"biological_target": "GlcNAc(b1-6)GalNAc", "in_short": "as §1"}, "[5]": {"biological_target": "GlcNAc6S(b1-3)Gal(b1-4)GlcNAc", "in_short": "as §1"}, "[6]": {"biological_target": "Kdn(a2-3)Gal(b1-3)GalNAc", "in_short": "as §1"}, "[7]": {"biological_target": "Kdn(a2-3)Gal(b1-3)GlcNAc", "in_short": "as §1"}, "[8]": {"biological_target": "Kdn(a2-3)Gal(b1-4)Glc", "in_short": "as §1"}, "[9]": {"biological_target": "Kdn(a2-3)Gal(b1-4)GlcNAc", "in_short": "as §1"}, "[10]": {"biological_target": "Kdn(a2-3)Gal(b1-4)[Fuc(a1-3)]GlcNAc", "in_short": "as §1"}, "[11]": {"biological_target": "Kdn(a2-6)Gal(b1-4)GlcNAc", "in_short": "as §1"}, "[12]": {"biological_target": "Man(a1-2)Man(a1-2)Man(a1-3)Man", "in_short": "as §1"}, "[13]": {"biological_target": "Man(a1-2)Man(a1-2)Man(a1-6)[Man(a1-3)]Man", "in_short": "as §1"}, "[14]": {"biological_target": "Man(a1-2)Man(a1-3)Man", "in_short": "as §1"}, "[15]": {"biological_target": "Man(a1-2)Man(a1-3)[Man(a1-2)Man(a1-6)]Man", "in_short": "as §1"}, "[16]": {"biological_target": "Man(a1-2)Man(a1-3)[Man(a1-2)Man(a1-6)]Man(a1-6)[Man(a1-2)Man(a1-2)Man(a1-3)]Man", "in_short": "as §1"}, "[17]": {"biological_target": "Man(a1-2)Man(a1-3)[Man(a1-2)Man(a1-6)]Man(a1-6)[Man(a1-2)Man(a1-2)Man(a1-3)]Man(b1-4)GlcNAc(b1-4)GlcNAc", "in_short": "as §1"}, "[18]": {"biological_target": "Man(a1-2)Man(a1-3)[Man(a1-6)]Man(a1-6)[Man(a1-2)Man(a1-3)]Man(b1-4)GlcNAc(b1-4)GlcNAc", "in_short": "as §1"}, "[19]": {"biological_target": "Man(a1-2)Man(a1-6)[Man(a1-3)]Man(a1-6)[Man(a1-2)Man(a1-2)Man(a1-3)]Man", "in_short": "as §1"}, "[20]": {"biological_target": "Man(a1-2)Man(a1-6)[Man(a1-3)]Man(a1-6)[Man(a1-2)Man(a1-2)Man(a1-3)]Man(b1-4)GlcNAc(b1-4)GlcNAc", "in_short": "as §1"}, "[21]": {"biological_target": "Man(a1-3)[Man(a1-6)]Man", "in_short": "as §1"}, "[22]": {"biological_target": "Man(a1-3)[Man(a1-6)]Man(a1-6)[Man(a1-2)Man(a1-3)]Man(b1-4)GlcNAc(b1-4)GlcNAc", "in_short": "as §1"}, "[23]": {"biological_target": "Man(a1-3)[Man(a1-6)]Man(a1-6)[Man(a1-3)]Man", "in_short": "as §1"}, "[24]": {"biological_target": "Man(a1-3)[Man(a1-6)]Man(a1-6)[Man(a1-3)]Man(b1-4)GlcNAc(b1-4)GlcNAc", "in_short": "as §1"}, "[25]": {"biological_target": "Man(a1-3)[Man(a1-6)]Man(b1-4)GlcNAc(b1-4)GlcNAc", "in_short": "as §1"}, "[26]": {"biological_target": "Man(a1-3)[Man(a1-6)]Man(b1-4)GlcNAc(b1-4)[Fuc(a1-6)]GlcNAc", "in_short": "as §1"}, "[27]": {"biological_target": "Man(a1-6)Man", "in_short": "as §1"}, "[28]": {"biological_target": "Man(b1-4)GlcNAc", "in_short": "as §1"}, "[29]": {"biological_target": "MurNAc(b1-4)GlcNAc", "in_short": "as §1"}, "[30]": {"biological_target": "Neu5Ac(a2-3)Gal", "in_short": "as §1"}, "[31]": {"biological_target": "Neu5Ac(a2-3)Gal(b1-3)GalNAc", "in_short": "as §1"}, "[32]": {"biological_target": "Neu5Ac(a2-3)Gal(b1-3)GalNAc(b1-3)Gal(a1-4)Gal(b1-4)Glc", "in_short": "as §1"}, "[33]": {"biological_target": "Neu5Ac(a2-3)Gal(b1-3)GalNAc(b1-4)[Neu5Ac(a2-3)]Gal(b1-4)Glc", "in_short": "as §1"}, "[34]": {"biological_target": "Neu5Ac(a2-3)Gal(b1-3)GalNAc(b1-4)[Neu5Ac(a2-8)Neu5Ac(a2-3)]Gal(b1-4)Glc", "in_short": "as §1"}, "[35]": {"biological_target": "Neu5Ac(a2-3)Gal(b1-3)GalNAc6S", "in_short": "as §1"}, "[36]": {"biological_target": "Neu5Ac(a2-3)Gal(b1-3)GlcNAc", "in_short": "as §1"}, "[37]": {"biological_target": "Neu5Ac(a2-3)Gal(b1-3)GlcNAc(b1-2)Man", "in_short": "as §1"}, "[38]": {"biological_target": "Neu5Ac(a2-3)Gal(b1-3)GlcNAc(b1-2)Man(a1-3)[GlcNAc(b1-4)][Neu5Ac(a2-3)Gal(b1-3)GlcNAc(b1-2)Man(a1-6)]Man(b1-4)GlcNAc(b1-4)GlcNAc", "in_short": "as §1"}, "[39]": {"biological_target": "Neu5Ac(a2-3)Gal(b1-3)GlcNAc(b1-2)Man(a1-3)[Neu5Ac(a2-3)Gal(b1-3)GlcNAc(b1-2)Man(a1-6)]Man(b1-4)GlcNAc(b1-4)GlcNAc", "in_short": "as §1"}, "[40]": {"biological_target": "Neu5Ac(a2-3)Gal(b1-3)GlcNAc(b1-3)Gal(b1-3)GlcNAc", "in_short": "as §1"}, "[41]": {"biological_target": "Neu5Ac(a2-3)Gal(b1-3)GlcNAc(b1-3)Gal(b1-4)GlcNAc", "in_short": "as §1"}, "[42]": {"biological_target": "Neu5Ac(a2-3)Gal(b1-3)GlcNAc(b1-3)GalNAc", "in_short": "as §1"}, "[43]": {"biological_target": "Neu5Ac(a2-3)Gal(b1-3)GlcNAc(b1-4)Gal(b1-4)Glc", "in_short": "as §1"}, "[44]": {"biological_target": "Neu5Ac(a2-3)Gal(b1-3)GlcNAc(b1-6)GalNAc", "in_short": "as §1"}, "[45]": {"biological_target": "Neu5Ac(a2-3)Gal(b1-3)GlcNAc6S", "in_short": "as §1"}},
  "note": "The list shows a part of the results.",
  "data": [
    {"binder": "GS13846A-bth-444-19-444 (Bacteroides thetaiotaomicron) (protein) SCENEFDVSDKADSLISVTVNTLNNQAAYNVGETAQAELWIQRGGLKDASGKVQFVVDPLLLDSLNQEDKTNYELLPENCYEMTNTEFTVDKNELCGYITYHPEKILALSAYNETKYVLPLRLISNDLAINPARNTSFLAFTILEPIVHISNAGVYNINPDLTSTMDIQIGVPFTNKWDILCNLTEDLSLIDEYNQINKVNFTLLPENAYTAPESVTLQEGVSQITASYQLKNNLVPGNYILPIKIGSITASQGGVPNNSLVIDEESNVLFCIVKEGNKINKSGWEVIECSSEHAGNEATYMIDDNESTYWHCKFKNEAGSSVPPFHFIIDMKKEITIAQIDLLNRGDGAANNIKWVEFYASNNNSEWDKIGAGDFNDEGTRATFRYYVKSTKARYLKLIIPEGYGNNCPPAAIRELTVYGLEGNN", "values": [
      {"measurement": "glycan array binding signal (z-score)", "setting": "[1]", "value": -0.104},
      {"measurement": "glycan array binding signal (z-score)", "setting": "[2]", "value": -0.208},
      {"measurement": "glycan array binding signal (z-score)", "setting": "[3]", "value": -0.131},
      {"measurement": "glycan array binding signal (z-score)", "setting": "[4]", "value": -0.108},
      {"measurement": "glycan array binding signal (z-score)", "setting": "[5]", "value": -0.011},
      {"measurement": "glycan array binding signal (z-score)", "setting": "[6]", "value": -0.219},
      {"measurement": "glycan array binding signal (z-score)", "setting": "[7]", "value": -0.228},
      {"measurement": "glycan array binding signal (z-score)", "setting": "[8]", "value": -0.259},
      {"measurement": "glycan array binding signal (z-score)", "setting": "[9]", "value": -0.171},
      {"measurement": "glycan array binding signal (z-score)", "setting": "[10]", "value": 0.218},
      {"measurement": "glycan array binding signal (z-score)", "setting": "[11]", "value": -0.191},
      {"measurement": "glycan array binding signal (z-score)", "setting": "[12]", "value": -0.375},
      {"measurement": "glycan array binding signal (z-score)", "setting": "[13]", "value": -0.207},
      {"measurement": "glycan array binding signal (z-score)", "setting": "[14]", "value": -0.266},
      {"measurement": "glycan array binding signal (z-score)", "setting": "[15]", "value": -0.335},
      {"measurement": "glycan array binding signal (z-score)", "setting": "[16]", "value": -0.25},
      {"measurement": "glycan array binding signal (z-score)", "setting": "[17]", "value": 0.749},
      {"measurement": "glycan array binding signal (z-score)", "setting": "[18]", "value": -0.361},
      {"measurement": "glycan array binding signal (z-score)", "setting": "[19]", "value": -0.337},
      {"measurement": "glycan array binding signal (z-score)", "setting": "[20]", "value": -0.182},
      {"measurement": "glycan array binding signal (z-score)", "setting": "[21]", "value": -0.024},
      {"measurement": "glycan array binding signal (z-score)", "setting": "[22]", "value": -0.084},
      {"measurement": "glycan array binding signal (z-score)", "setting": "[23]", "value": 0.111},
      {"measurement": "glycan array binding signal (z-score)", "setting": "[24]", "value": -0.074},
      {"measurement": "glycan array binding signal (z-score)", "setting": "[25]", "value": -0.437},
      {"measurement": "glycan array binding signal (z-score)", "setting": "[26]", "value": -0.186},
      {"measurement": "glycan array binding signal (z-score)", "setting": "[27]", "value": -0.348},
      {"measurement": "glycan array binding signal (z-score)", "setting": "[28]", "value": -0.063},
      {"measurement": "glycan array binding signal (z-score)", "setting": "[29]", "value": -0.055},
      {"measurement": "glycan array binding signal (z-score)", "setting": "[30]", "value": -0.549},
      {"measurement": "glycan array binding signal (z-score)", "setting": "[31]", "value": -0.263},
      {"measurement": "glycan array binding signal (z-score)", "setting": "[32]", "value": -0.249},
      {"measurement": "glycan array binding signal (z-score)", "setting": "[33]", "value": 0.179},
      {"measurement": "glycan array binding signal (z-score)", "setting": "[34]", "value": -0.083},
      {"measurement": "glycan array binding signal (z-score)", "setting": "[35]", "value": -0.313},
      {"measurement": "glycan array binding signal (z-score)", "setting": "[36]", "value": -0.179},
      {"measurement": "glycan array binding signal (z-score)", "setting": "[37]", "value": -0.327},
      {"measurement": "glycan array binding signal (z-score)", "setting": "[38]", "value": -0.023},
      {"measurement": "glycan array binding signal (z-score)", "setting": "[39]", "value": 0.024},
      {"measurement": "glycan array binding signal (z-score)", "setting": "[40]", "value": -0.139},
      {"measurement": "glycan array binding signal (z-score)", "setting": "[41]", "value": -0.271},
      {"measurement": "glycan array binding signal (z-score)", "setting": "[42]", "value": -0.452},
      {"measurement": "glycan array binding signal (z-score)", "setting": "[43]", "value": -0.503},
      {"measurement": "glycan array binding signal (z-score)", "setting": "[44]", "value": -0.002},
      {"measurement": "glycan array binding signal (z-score)", "setting": "[45]", "value": -0.135}
    ]}
  ]
}
